Experimental data reported in US20210230292A1 (DIATHEVA S R L, published 2021).

Target: T1, human CD99ecd/GST (human, UniProt P14209 23-122)
T1 construct: Expressed in E. coli BL21(DE3), purified on Glutathione Sepharose; also called CD99ecd/GST antigen; recombinant CD99; not shown: glutathione-S-transferase as encoded by vector pGEX-2T (GE Healthcare); CD99ecd fused downstream of it through the BamHI
T1 sequence: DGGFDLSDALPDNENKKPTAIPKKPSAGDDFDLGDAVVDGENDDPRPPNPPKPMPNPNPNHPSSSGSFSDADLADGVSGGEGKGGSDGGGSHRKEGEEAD
Experiment: competitive ELISA (Rath 1988), CD99ecd/GST coated and soluble CD99ecd/GST as inhibitor
Method: The binding affinity, expressed as the dissociation constant (kd) of scFv C7, C7dAbd, C7IgG4 and C7IgG1 for CD99, was determined by analysing the saturation of binding at equilibrium with a competitive ELISA assay according to the procedure described in Rath S 1988 with small variations. […] For this purpose, 96-well plates were sensitized by distributing 500 ng/well of CD99ecd/GST diluted in 0.5M carbonate buffer, pH 9.6, and incubating ON at 4° C. After 3 washes with PBS supplemented with 0.05% V/V of Tween20, the plates were blocked with a 1% W/V solution of BSA in PBS (PBSB), pH 7.4, for 60 min. at 37° C. After washing, the plates were incubated for 1 hour at 37° C. with serial dilutions of C7 (from 200 μg/ml to 0.03 μg/ml in triplicate) diluted in PBSB and dispensed (100 μl/well). The plates were incubated at 37° C. for 90 minutes. After washing a dilution of polyclonal anti-scFv diluted 1:500 in PBSB was dispensed, 100 μl/well, and incubated for 60 minutes at 37° C. […]
A competitive ELISA assay was then set up. […] The scFvC7 and C7 diabody signal was determined by dispensing, in a first step, a polyclonal anti-scFv antibody generated in rabbits immunized with scFvC7 and diluted 1:500 v/v in PBSB and subsequently with an anti-rabbit HRP diluted 1:1000 v/v. […]

B1: C7 diabody (C7dAbd) (other)
scFv: [about 100 residues omitted here]SHKRFDYWGQGTLVTVSRGGGGSSELTQDPAVSVALGQTVRITCQGDSLRSYYASWYQQKPGQAPVLVIYGKNNRPSGIPDRFSGSSSGNTASLTITGAQAEDEADYYCNSSFPRTSSVVFGGGTKLTVLG
notes: Dimeric derivative of scFv C7 (bivalent scFv, 50 kDa), linker shortened from 15 to 5 amino acids; made in E. coli from pET22b(+); Used FITC-labelled in the ex vivo and confocal tests; also called C7 in the diabody format; C7dAbd-FITC
Kd: 489 nM
